Experimental data reported in the RNAGym collection of RNA variant scans (doi:10.1101/gad.245936.114).
Variants at the floor of the assay are shown more often than the library holds them.

B1: tRNA (parent)
chain: CUCUCGGUAGCCAAGUUGGUUUAAGGCGCAAGACUUUAAUUUAUCACUACGAAAUCUUGAGAUCGGGCGUUCGACUCGCCCCCGGGAGAUUUUUUCCUCGAGCAA

Variants of: B1
Test: nonsense suppression (GFP-seq) (ratio to wild type); higher = more function; SUP4oc tRNA, yeast GFP reporter sort-seq
Outline: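 Yeast were grown in raffinose/galactose medium with 80 mg/L adenine, each strain bearing a genome-integrated ochre-suppressor tRNA variant from a ~3% random-mutation library, a galactose-driven GFP ochre reporter, and RFP. After sorting into GFP/RFP bins, every bin was sequenced on an Illumina platform at phred ≥30. The GFPSEQ value, a measure of nonsense suppression, is the weighted bin median GFP/RFP relative to the unmutated parent tRNA, using each variant's estimated cell share per bin as the weight. Only variants with ≥100 reads and ≥30 cells were included.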

Nonsense suppression, 0.0262:
C1U A9G

Nonsense suppression, ≤ 0.026:
C1G G7U C12U A14G A23C C68U G84C
C1G G7U U8C
C1G G7U U17A A87G
C1G G10A C68A
C1G G10A G19C G65C A74C
C1G G10C A30G G32U
C1G G10C C29U C34G A89G
C1G G10U C64G U76G
C1G G15A A33C U58A
C1G G15A U58C
C1G G15C C34U
C1G G15C G59A G78U
C1G G15U A62C
C1G G15U G88C
C1G G18C A74U
C1G G18U A23G
C1G G18U C29A
C1G G18U G85U
C1G G19C G73C
C1G G25C C75G
C1G G28U G65U G69U
C1G G32A A60C U70A
C1G G32C
C1G G59A G65U
C1G G59U
C1G G61A G78U A87C
C1G G61C U63G C80A
C1G G65A
C1G G65C
C1G G65C C82U
C1G G66C
C1G G66C U71A G78U
C1G G73A C83A
C1G G84U
C1G G84U A87U
C1G G86U
C1G G88A
C1G U2C U55C G59A G66A U76A C82G
C1G U2C U70A C75U
C1G U4A A54G
C1G U4A A54G A89C
C1G U4A C12U
C1G U4G G7C U55C G85C
C1G U4G G78C
C1G U8A C12A G25U A62U A74G
C1G U8A C29U A62G U76G
C1G U8C G59C
C1G U8G
C1G U16C G25U C79A
C1G U16C U20A U21A A24U A87C
C1G U17A G69C C81G
C1G U17A U70G
C1G U17C C34G C72A
C1G U20A G25A
C1G U20G C34G
C1G U21A
C1G U21A A30U
C1G U21A G73C
C1G U21C A23C C56A G84C
C1G U22G A30U G59A
C1G U22G C56G C82A G84A A89U
C1G U22G G66U
C1G U35A G84C
C1G U55A C56A U58C
C1G U55G G61C
C1G U55G G67U
C1G U57A U58G G84U
C1G U58C A62U G78U G88U
C1G U58G C81A G86U
C1G U63G C77U
C1G U71A C79G
C1G U76C G88C
C1U A9G G26C G66A C83U
C1U A13C A30C C77U A89C
C1U A13C U16C A62C
C1U A13C U76C
C1U A13G G15U U76G G88C
C1U A13G U63C
C1U A13U A14C U58A G65A
C1U A13U C82A
C1U A14C C56A
C1U A14C C56U
